± gives the uncertainty stated by the source. Over roughly 9,900 compounds, “viability index relative to DMSO control” has its median near 1; the lowest 2% begin near 0.85. The list shows a part of the results.
These compounds were tested on Plasmodium falciparum NF54 stage V gametocytes (assay: viability index relative to DMSO control (fraction); higher = less gametocyte killing). Conditions: 2.5 µM, library set: Broad Institute DOS, incubation time: 72 h.
In short: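 P. falciparum NF54 stage V gametocytes in serum-free screening medium (0.75% gametocytemia, 1.25% hematocrit, 10 µl) were incubated with compound at 2.5 µM in 1,536-well plates for 72 hr at 37°C under low oxygen. Then 3 µl of 2.5 µM MitoTracker Red CMXRos plus 0.13% saponin was added for one to two hours. One field per well was imaged, 20–70 µm2 red particles were counted, and the viability index was the count divided by the plate mean of DMSO wells.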
With CC(C)CC#Cc1ccc([C@H]2[C@H]3CN(C(=O)c4ccccn4)CC(=O)N3[C@H]2CO)cc1 the viability index was 1.04 ± 0.021. Compound COc1cccc(CN2CC3(C2)[C@H](c2ccccc2)[C@@H](CO)N3Cc2ccccc2OC)c1 has a viability index of 0.914 ± 0.013. Compound C/C=C/c1ccc2c(c1)[C@H]1[C@H](CCN1S(=O)(=O)c1ccccc1F)[C@H](CO)N2 has a viability index of 0.955 ± 0.038. Compound Cc1ccccc1S(=O)(=O)N1C[C@H](O)COC[C@@H]2O[C@@H](CC(=O)N3CCCCC3)CC[C@H]21 has a viability index of 0.983 ± 0.07. In the case of C[C@@H]1CN([C@@H](C)CO)C(=O)CCCn2nncc2CO[C@H]1CN(C)Cc1ccc(C(=O)Nc2ccccc2N)cc1, the viability index is reported as 1.078 ± 0.0086. In the case of O=C(O)C[C@H]1C[C@H]2c3cc(NC(=O)Cc4ccncc4)ccc3O[C@H]2[C@H](CO)O1, the viability index is reported as 1.055 ± 0.0026. Work on O=C1NCCOCc2cn(nn2)CCC[C@@H]1Cc1ccccc1 yielded a viability index of 0.943 ± 0.024. In the case of O=C(C1CCOCC1)N1CC(=O)N2[C@H](CO)[C@H](c3ccc(/C=C/c4ccccc4)cc3)[C@@H]2C1, the viability index is reported as 0.99 ± 0.011. For C/C=C/c1ccc2n(c1=O)C[C@H]1[C@H](CO)[C@@H](C(=O)NCc3ccccc3Cl)N(S(C)(=O)=O)[C@@H]21.C/C=C\c1ccc2n(c1=O)C[C@H]1[C@H](CO)[C@@H](C(=O)NCc3ccccc3Cl)N(S(C)(=O)=O)[C@@H]21, the viability index was 1.08 ± 0.025. O=C(C[C@@H]1CC[C@@H]2[C@H](COC[C@@H](O)CN2Cc2ccc(F)cc2)O1)NCCc1ccccc1 gave a viability index of 1.04 ± 0.019. C/C=C/c1ccc([C@@H]2[C@H]3CN(Cc4ccc(F)cc4)CC(=O)N3[C@H]2CO)cc1 gave a viability index of 1.08 ± 0.022. For COc1cccc(S(=O)(=O)Nc2ccc3c(c2)C(=O)N(C)C[C@H](OC)[C@@H](C)CN(Cc2ccccc2F)[C@@H](C)CO3)c1, the viability index was 1.02 ± 0.064. Work on Cc1noc(C)c1NC(=O)N1C[C@@H](O)COC[C@H]2O[C@H](CC(=O)N[C@@H]3CCN(Cc4ccccc4)C3)CC[C@@H]21 yielded a viability index of 1.02 ± 0.082. With Cc1noc(C)c1NC(=O)Nc1ccc2c(c1)C(=O)N([C@@H](C)CO)C[C@H](C)[C@H](CN(C)Cc1ccc3c(c1)OCO3)OCCCC[C@H](C)O2 the viability index was 1.16 ± 0.13. Compound C/C=C/c1ccc([C@H]2[C@@H](CO)N(C(=O)CC)[C@@H]2CN(C(=O)C2CC2)C(C)C)cc1 has a viability index of 1.03 ± 0.013. Compound COc1cccc(-c2ccccc2[C@@H]2[C@@H](CO)N(C(=O)Cc3ccccc3)[C@H]2C#N)c1 has a viability index of 1.17 ± 0.13. With COc1ccc2c3c([C@H](CO)N(C)C[C@]33CCN(CC3)C(=O)NC(C)C)n(C)c2c1 the viability index was 1.05 ± 0.057. COc1ccc(NC(=O)N(C)C[C@@H]2Oc3ccc(NC(=O)CCN4CCOCC4)cc3C(=O)N([C@H](C)CO)C[C@H]2C)cc1 was tested, and the viability index was 1.02 ± 0.072. O=C(Nc1ccccc1F)N1CC(=O)N2[C@@H](CO)[C@@H](c3ccc(-c4cccnc4)cc3)[C@@H]2C1 gave a viability index of 1.113 ± 0.0028. For COCC(=O)Nc1ccc2c(c1)C(=O)N(C)[C@H]1CC[C@@H](CC(=O)N3CCc4ccccc4C3)O[C@H]1CO2, the viability index was 0.961 ± 0.025. For O=C(Cc1ccccn1)N1CC2(C1)[C@H](c1ccccc1)[C@H](CO)N2C(=O)c1ccncc1, the viability index was 1.08 ± 0.055. COc1ccc(C(=O)N2C[C@@H]3[C@H](c4ccccc42)[C@@H](CO)N3Cc2ccccc2Cl)cc1 was tested, and the viability index was 1.01 ± 0.042. In the case of O=C(c1cccnc1)N1CC(=O)N2[C@H](C1)[C@@H](c1ccc(-c3ccccc3F)cc1)[C@@H]2CO, the viability index is reported as 1.06 ± 0.032. With CS(=O)(=O)Nc1ccc2c(c1)[C@@H]1C[C@H](CC(=O)NCCc3ccccc3)O[C@@H](CO)[C@@H]1O2 the viability index was 1.06 ± 0.12. CCN1CC(=O)N2[C@H](CO)[C@@H](c3ccc(Br)cc3)[C@@H]2C1 showed a viability index of 0.886 ± 0.052. Cc1cccc(S(=O)(=O)N2[C@@H]3CNC[C@H]2[C@@H]3c2ccc(-c3cncnc3)cc2)c1 was tested, and the viability index was 1.0665 ± 0.00061. Compound Cc1ccccc1-c1ccc([C@@H]2[C@H](CO)N3CCCCN(S(=O)(=O)Cc4ccccc4)C[C@@H]23)cc1 has a viability index of 0.74 ± 0.039. For N#C[C@H]1[C@@H](c2ccccc2C2=CCCCC2)[C@H](CO)N1S(=O)(=O)c1ccccc1, the viability index was 1.1 ± 0.17. CCCNC(=O)N1C[C@@H]2[C@H](c3ccccc31)[C@@H](CO)N2Cc1cccc(OC)c1 gave a viability index of 0.953 ± 0.02. For C[C@@H]1CN([C@H](C)CO)C(=O)c2cc(NS(=O)(=O)c3cccs3)ccc2O[C@@H](C)CCCCO[C@H]1CN(C)Cc1ccc(Cl)c(Cl)c1, the viability index was 0.921 ± 0.047. For Cc1ccc(S(=O)(=O)Nc2cccc3c2O[C@H](CN(C)C(=O)Nc2ccc(C(F)(F)F)cc2)[C@@H](C)CN([C@@H](C)CO)C3=O)cc1, the viability index was 1.06 ± 0.054. O=C(C[C@@H]1CC[C@@H]2[C@H](COC[C@H](O)CN2Cc2ccc(C(F)(F)F)cc2)O1)N1CCc2ccccc2C1 was tested, and the viability index was 1.078 ± 0.0039. COC(=O)C[C@H]1CC[C@H]2[C@@H](COC[C@@H](O)CN2S(=O)(=O)c2cn(C)cn2)O1 was tested, and the viability index was 1.07 ± 0.016. With O=C(C[C@H]1CC[C@H]2[C@@H](COC[C@H](O)CN2S(=O)(=O)c2ccccc2)O1)NCC1CCCCC1 the viability index was 1.11 ± 0.076. For CO[C@@H]1CN(C)C(=O)c2ccc(NC(C)=O)cc2OC[C@@H](C)N(C(=O)c2cnccn2)C[C@H]1C, the viability index was 1.09 ± 0.065.

Source: the supplement of paper PMC4723716
